# Results taken from PubChem BioAssay AID504332 (National Center for Advancing Translational Sciences (NCATS), 2011).
# In all, about 350,000 compounds went through this assay and about 31,000 (8.9%) were called active. The shares of active, inactive and inconclusive entries below differ from those in the screen. Calls come from the whole dose curve; as a rule, active = well fitted inhibition curve with a large enough effect; inconclusive = small, poorly fitted or top-dose-only effect; inactive = no such curve, though single readings can be large or run the other way. A potency beside an inconclusive call is a rough fit, not a confirmed value.
# Biological target: Histone-lysine N-methyltransferase EHMT2 (Homo sapiens) (UniProt Q96KQ7)
# UniProt Q96KQ7, sequence (Q96KQ7 whole entry, looked up): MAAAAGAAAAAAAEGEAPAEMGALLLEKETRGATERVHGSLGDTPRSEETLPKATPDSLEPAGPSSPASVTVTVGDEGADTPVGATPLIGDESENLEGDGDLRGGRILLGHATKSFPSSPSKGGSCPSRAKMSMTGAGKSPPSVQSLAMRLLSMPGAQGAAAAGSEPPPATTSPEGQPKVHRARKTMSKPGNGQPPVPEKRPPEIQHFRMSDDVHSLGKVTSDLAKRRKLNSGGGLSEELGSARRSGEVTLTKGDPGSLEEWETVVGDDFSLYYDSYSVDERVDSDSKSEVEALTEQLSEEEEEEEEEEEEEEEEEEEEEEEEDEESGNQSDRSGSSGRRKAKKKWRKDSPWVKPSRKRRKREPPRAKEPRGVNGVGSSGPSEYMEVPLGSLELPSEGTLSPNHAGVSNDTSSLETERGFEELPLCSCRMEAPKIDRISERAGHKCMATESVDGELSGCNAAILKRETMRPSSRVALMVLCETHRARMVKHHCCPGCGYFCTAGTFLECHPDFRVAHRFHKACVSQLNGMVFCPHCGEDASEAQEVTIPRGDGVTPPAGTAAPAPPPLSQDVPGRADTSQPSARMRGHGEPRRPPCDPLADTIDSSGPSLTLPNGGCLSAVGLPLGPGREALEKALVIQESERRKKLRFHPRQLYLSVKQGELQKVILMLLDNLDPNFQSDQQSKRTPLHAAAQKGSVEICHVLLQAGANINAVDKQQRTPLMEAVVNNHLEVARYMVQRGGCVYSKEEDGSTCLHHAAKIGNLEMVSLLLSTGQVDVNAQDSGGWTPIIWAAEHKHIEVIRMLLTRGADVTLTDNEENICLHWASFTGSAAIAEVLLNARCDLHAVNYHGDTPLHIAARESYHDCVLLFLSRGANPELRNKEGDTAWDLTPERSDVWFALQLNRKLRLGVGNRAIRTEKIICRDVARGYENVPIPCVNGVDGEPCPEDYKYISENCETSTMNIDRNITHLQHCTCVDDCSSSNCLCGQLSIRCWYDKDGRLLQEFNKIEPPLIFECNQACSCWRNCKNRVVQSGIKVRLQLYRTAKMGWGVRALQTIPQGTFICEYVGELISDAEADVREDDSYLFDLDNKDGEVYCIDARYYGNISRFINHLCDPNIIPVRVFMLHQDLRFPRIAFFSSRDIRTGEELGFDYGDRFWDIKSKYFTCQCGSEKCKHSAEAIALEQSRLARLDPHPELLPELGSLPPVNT
# Assay: qHTS Assay for Inhibitors of Histone Lysine Methyltransferase G9a; note: nearly all actives have a fitted effect of over 75% in size
# Conditions: G9a H3K9 monomethylation, AlphaScreen, 2 h; activity, negative = inhibition: at 59 µM (top of the series) unless noted
# Source text: Methylated lysines, on the N-terminal tails of histone proteins serve as epigenetic markers to recruit factors that can then modify local chromatin structure to lead to functional consequences. G9a and other members of the SUV39 family of the SET domain-containing superfamily of histone lysine methyltransferases (HMT) have been identified to specifically methylate Lys9 of histone H3 (H3K9). G9a catalyzes the mono- and di-methylation of H3K9 in mammalian euchromatic regions, where the resulting H3K9me2 is indicative of transcriptional repression. […] The inhibition of G9a will result in transcriptional activation and work synergistically with DNA methyltransferase and histone deacetylase inhibitors, to kill cancer cells. This qHTS assay for identification of G9a inhibitors is a chemiluminescence based AlphaScreen (PerkinElmer). Methylation of biotinylated-histone peptide is measured through specific antibody-based detection, in conjunction with streptavidin-coated donor and anti-IgG antibody-coated acceptor beads. The method is particularly well suited for detection of inhibitors acting by the desired histone peptide competitive mechanism and is applicable to testing other HMTs. Although AlphaScreen has significant advantages with its utility in a variety of epigenetic target assays, the primary screening data provided in this deposition should be used with caution due to the prevalence of screening artifacts. An AlphaScreen counterscreen is highly recommended to be run against any putative actives to eliminate non specific artifacts. Alternatively, one can use other AlphaScreen assays in PubChem to filter out promiscuous hits. Quinn et al. A chemiluminescence-based method for identification of histone lysine methyltransferase inhibitors. Mol Biosyst 6(5): 782-8. 2010. PMID: 20567762 [2] Baell,Holloway. New substructure filters for removal of pan assay interference compounds (PAINS) from screening libraries and for their exclusion in bioassays. J Med Chem. 53(7):2719-40. 2010. PMID: 20131845 NIH Molecular Libraries Probe Production Network [MLPCN] NIH Chemical Genomics Center [NCGC] Structural Genomics Consortium (SGC) NIH Grant: 5U54 MH084681-02
# To each well of a 1,536w plate, 2ul of HMT enzyme (final 20nM) were added, using a nanoliter dispenser. The G9a- and GLP-inhibitor BIX-01294 (CID: 25150857) are used as an intraplate control, with a 16-point titration in duplicate. A Kalypsys pin-tool transferred 23nl of library compound solution in DMSO to each well. Following a 15 min incubation of enzyme with compounds at room temperature, 1ul mixture of b-H3K9 peptide substrate (final 500nM) and SAM cofactor (final 20uM) were added. Reactions were allowed to proceed at room temperature for 2 hours. Methylated b-H3K9 peptide product was detected with 0.5 ug/mL rabbit polyclonal anti-monomethyl histone H3K9 antibody (Abcam Inc., Cambridge, MA) and 20 ug/mL each streptavidin-coated donor and anti-rabbit IgG acceptor AlphaScreen beads. Antibody and beads were added in a 1ul dispense, for a final volume of 4ul, and plates were incubated, protected from the light, for 10 min at room temperature. Microplates were then read on an EnVision multilabel plate reader using the 1,536 plate HTS AlphaScreen aperture (excitation time 80 ms, measurement time 240 ms).
# % is set by controls: 0 for no effect and ±100 for the full control effect; potency is the fitted concentration of half-maximal effect; tags give direction and shape of the fitted curve.
Compound,"activity, negative = inhibition",Potency
CCOC(=O)C(NC(=O)Nc1ccc(Cl)cn1)(Oc1ccc(F)cc1)C(F)(F)F (configuration not stated),inactive: 6.4%,–
COc1ccc(NC(=O)C2CCN(S(=O)(=O)c3cccc4cccnc34)CC2)cc1,–,"inconclusive: 39.8 µM [inhibitor, partial curve, poor fit]"
CC(C)(C)Sc1nc(O)cc(=O)[nH]1,–,"inconclusive: 89.1 µM [inhibitor, single point]"
COc1ccc(-c2nc(CCNC(=O)c3ccco3)cs2)cc1OC,–,"inconclusive: 44.7 µM [inhibitor, partial curve, poor fit]"
Nc1c(NCc2ccccc2)c(=O)[nH]c(=O)n1Cc1ccccc1,inactive: 26.4%,–
O=C(NCc1cccs1)c1cc2c(s1)CCCC2,–,"inconclusive: 1.78 µM [inhibitor, partial curve, poor fit]"
CC(C)[C@H](NC(=O)[C@@H]1Cc2ccccc2CN1)C(=O)Nc1ccc2c(c1)OCO2,–,"inconclusive: 89.1 µM [inhibitor, single point]"
CSc1ccccc1NC(=O)CN(c1ccccc1)S(=O)(=O)N(C)C,–,"inconclusive: 20 µM [inhibitor, partial curve, poor fit]"
COc1ccc(CC(=O)OCC(=O)NCc2ccco2)cc1OC,–,active: 50.1 µM
COC(=O)c1cc(OC)c(OC)cc1NC(=S)Nc1cc(Cl)ccc1OC,–,"inconclusive: 79.4 µM [inhibitor, partial curve, poor fit]"
Cc1c2c(nc3c(C(=O)NC4CCCCC4C)cnn13)CCCC2 (configuration not stated),–,"inconclusive: 25.1 µM [inhibitor, single point]"
Cc1oc2c(cc(NS(=O)(=O)c3ccc(F)cc3)c3ccccc32)c1C(=O)O,–,"inconclusive: 89.1 µM [inhibitor, single point]"
CCN(CC(=O)Nc1ccc(NC(C)=O)cc1)C(=O)Cc1ccc(Cl)c(Cl)c1,–,"inconclusive: 63.1 µM [inhibitor, partial curve, poor fit]"
CS(=O)(=O)c1ccc2nc(NC(=O)Nc3ccc(Cl)cc3)sc2c1,–,"inconclusive: 2 µM [inhibitor, full curve]"
CCOc1ccc2c(O)csc2c1,–,"inconclusive: 2.82 µM [inhibitor, partial curve, poor fit]"
CN(C)C1(CNC(=O)c2cccc(S(=O)(=O)Nc3ccc(Br)cc3)c2)CCCCC1,–,"inconclusive: 89.1 µM [inhibitor, single point]"
CN1CCN(c2ccc(S(=O)(=O)N3CCCCC3)cc2NC(=O)COc2ccc([N+](=O)[O-])cc2)CC1,–,"inconclusive: 3.98 µM [inhibitor, single point]"
